Measured values taken from PubChem BioAssay AID504832 (National Center for Advancing Translational Sciences (NCATS), 2011).
About 18,000 (5.8%) of roughly 310,000 compounds were called active. The shares of active, inactive and inconclusive entries below differ from those in the screen. Calls come from the whole dose curve; as a rule, active = well fitted inhibition curve with a large enough effect; inconclusive = small, poorly fitted or top-dose-only effect, or another doubt; inactive = no such curve, though single readings can be large or run the other way. Potencies of inconclusive entries are left out as doubtful fits.

Assay: Primary qHTS for delayed death inhibitors of the malarial parasite plastid, 48 hour incubation
Conditions: P. falciparum luciferase growth in erythrocytes; series mostly up to 28.7 µM; activity change, negative = inhibition: at the top concentration
Summary of the method: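 Cell-based growth assay: transgenic P. falciparum expressing firefly luciferase, cultured in red cells within RPMI 1640 containing 0.5% w/v Albumax, 24 mM bicarbonate and gentamycin. A drop in luciferase activity indicates inhibition.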
% is set by controls: 0 for no effect and ±100 for the full control effect; potency is the fitted concentration of half-maximal effect; tags give direction and shape of the fitted curve.

| Structure (SMILES) | Potency | activity change, negative = inhibition |
| --- | --- | --- |
| CC(C)C[C@H](NC(=O)C1CC(=O)N(c2ccc3c(c2)OCO3)C1)C(=O)NC1CCCCC1 (stereo not given in full) | inconclusive [inhibitor, partial curve, poor fit] | – |
| CCCCCCSc1ccc([C@H]2N[C@@](C)(C(=O)OC)[C@H]3C(=O)N(C)C(=O)[C@@H]23)cc1 | active: 14.7 µM | – |
| CN(CC(=O)Nc1ccccc1Br)CC(=O)Nc1ccccc1-c1ccccc1 | inconclusive [inhibitor, single point] | – |
| COc1ccccc1CC(Cc1nc2ccccc2[nH]1)c1nc2ccccc2[nH]1 (stereo not given) | inconclusive [inhibitor, single point] | – |
| CN(C)c1ccc(C2(c3ccc(N(C)C)cc3)OC(=O)c3cc(N)ccc32)cc1 | – | inactive: -6.93% |
| CCOc1cc2c3c(c1)C1(C(=O)N3C(C)(C)C=C2C)C(C#N)=C(N)Oc2cc(O)ccc21 (stereo not given) | active: 4.65 µM | – |
| CNC(=O)c1c(NC(=O)c2ccc(S(=O)(=O)N3CCCc4ccccc43)cc2)sc2c1CCN(C)C2 | inconclusive [inhibitor, partial curve] | – |
| O=C(NNC1=NCCC1)C1CC1 | – | inactive: 3.85% |
| COCCNC(=O)C(c1ccc(C)o1)N(C(=O)c1snc(C(N)=O)c1N)c1ccc(C)c(C)c1 (stereo not given) | inconclusive [inhibitor, single point] | – |
| O=[N+]([O-])c1cccc(/C=N/Nc2nc(N3CCOCC3)nc(N3CCOCC3)n2)c1 | – | inactive: -24.4% |
| COc1ccc(S(=O)(=O)N2CCOCC2)cc1NC(=O)c1cccc2c(=O)c(C)c(-c3ccccc3)oc12 | active: 5.22 µM | – |
| C=CCn1c(SCC(=O)c2ccc(Cl)cc2)nnc1-c1ccc2c(c1)OCO2 | inconclusive [inhibitor, partial curve] | – |
| CCCSc1ccc([C@@H]2[C@H]3C(=O)N(CC)C(=O)[C@H]3[C@]3(C(=O)OC)CCCN23)cc1OC | inconclusive [inhibitor, partial curve, poor fit] | – |
| CCN(CC)CCCN1C=C2C(=O)C(C)(OC(=O)CCc3ccccc3)C(=O)C=C2C=C1c1ccc(C#N)cc1 (stereo not given) | inconclusive [inhibitor, single point] | – |
| CC(=O)Nc1ccc(Oc2cc(C#N)c(C#N)cc2N2CCCCCC2)cc1 | inconclusive [inhibitor, single point] | – |
| COc1ccc(NC(=O)C(Cl)=C(Cl)Cl)cn1 | inconclusive [inhibitor, single point] | – |
| CC(=O)Nc1ccc(-c2csc(NC(=O)C3CSC4(C)CCC(=O)N34)n2)cc1 (stereo not given) | inconclusive [inhibitor, single point] | – |
| CCN(CC)c1ccc(NC(=O)CCc2nnc3ccc(N4CCCC4)nn23)c(C)c1 | active: 11.7 µM | – |
| Cc1cccc(N2CCc3c2nc2ccc(Br)cc2c3N)c1 | inconclusive [inhibitor, single point] | – |
| Cc1ccc(C(CC(=O)O)NC(=O)c2ccc(S(=O)(=O)N3CCCC3)cc2)cc1 (stereo not given) | inconclusive [inhibitor, partial curve, poor fit] | – |
| Cc1c(OC(C(=O)O)c2ccccc2)ccc2c3c(c(=O)oc12)CCC3 (stereo not given) | inconclusive [inhibitor, single point] | – |
| CN(CCOC(=O)c1ccc2c(c1)OCCO2)Cc1ccccc1 | – | inactive: 17.1% |

| Structure (SMILES) | Potency | activity change, negative = inhibition |
| --- | --- | --- |
| O=[N+]([O-])c1cccc(CSC2=NCCN2S(=O)(=O)c2ccccc2)c1 | inconclusive [inhibitor, single point] | – |
| COc1ccc(C2C(=O)c3ccccc3C2=Nc2ccc(Br)cc2)cc1 (stereo not given) | – | inactive: 50% |
| O=C(NCCc1ccc(Cl)cc1)c1ccc(S(=O)(=O)N2CCCC2)cc1 | inconclusive [inhibitor, single point] | – |
| COCCNC(=O)/C(C#N)=C/c1c(N2CC(C)OC(C)C2)nc2ccccn2c1=O (stereo not given) | – | inactive: 21% |
| O=C(c1ccccc1)c1cc2cc(Cl)ccc2[nH]1 | – | inactive: 106% |
| Cc1ccc2cc(C)c(N3CCN(c4ccc(F)cc4)CC3)nc2c1 | inconclusive [inhibitor, partial curve, poor fit] | – |
| CCOc1ccccc1NC(=O)CSc1nnc2ccc(-c3cccnc3)nn12 | inconclusive [inhibitor, partial curve, poor fit] | – |
| CCOC(=O)c1cnc2c(C)c(Cl)ccc2c1Nc1ccc(S(=O)(=O)Nc2ncccn2)cc1 | – | inactive: 7.69% |
| CS(=O)(=O)N1CCC(CO)(Cc2ccccc2C(F)(F)F)CC1 | inconclusive [inhibitor, full curve, poor fit] | – |
| NC(=O)CC(NC(=O)Cc1ccc(Cl)cc1)c1ccc(NC2CCCCCCC2)c([N+](=O)[O-])c1 (stereo not given) | – | inactive: -4.19% |
| Cc1cccc(NC(=S)N2CCCCC2)c1 | – | inactive: 17% |
| CCOCCCNC(=O)CCS(=O)(=O)Cc1ccc(C)cc1 | inconclusive [inhibitor, partial curve, poor fit] | – |
| Cc1ccc(S(=O)(=O)N(CC(=O)NCCSc2ccccn2)c2cc(C)cc(C)c2)cc1 | inconclusive [inhibitor, single point] | – |
| CC1CCCN(S(=O)(=O)c2ccc(C(=O)Nc3nnc(-c4ccncc4)o3)cc2)C1 (stereo not given) | inconclusive [inhibitor, partial curve, poor fit] | – |
| CCC(C(=O)NC1CCCCC1)n1nc(C)c2c(C)n(-c3ccccc3)nc2c1=O (stereo not given) | inconclusive [inhibitor, partial curve] | – |
| O=C1c2cccc3cc([N+](=O)[O-])cc(c23)C(=O)N1/N=C/c1ccc(O)cc1O | active: 11.7 µM | – |
| NS(=O)(=O)c1ccc(CCNC(=O)CCc2nc3sc4c(c3c(=O)[nH]2)CCCC4)cc1 | inconclusive [inhibitor, partial curve] | – |
| CC1CCN(C(=O)CSc2nnc3c(n2)[nH]c2ccccc23)CC1 | inconclusive [inhibitor, partial curve] | – |
| CCc1ccccc1N(C1=NCCCS1)S(=O)(=O)c1ccc(C(C)(C)C)cc1 | inconclusive [inhibitor, single point] | – |
| O=C(CCC1CCCCC1)NNC(=O)c1cnccn1 | active: 13.1 µM | – |
| Cc1ccc2c(c1)N(Cc1cccc(Cl)c1)C(=O)c1cccnc1O2 | inconclusive [inhibitor, single point] | – |
| CCOC(=O)N1CCN(C(=O)c2ccc3c(c2)N(Cc2ccc(F)cc2)CCS3)CC1 | inconclusive [inhibitor, single point] | – |

| Structure (SMILES) | Potency | activity change, negative = inhibition |
| --- | --- | --- |
| Cc1cccc(N(CC(=O)NCCSc2ccccn2)S(=O)(=O)c2ccccc2)c1 | inconclusive [inhibitor, partial curve] | – |
| Cc1noc(C)c1CSCC(=O)Nc1cc(C(F)(F)F)ccc1N1CCCCC1 | active: 4.65 µM | – |
| C/C(=N\Nc1ccc(F)cc1)c1ccc(N2CCOCC2)c(F)c1 | inconclusive [inhibitor, partial curve] | – |
| c1ccc2c(N3CCOCC3)nc(-c3ccncc3)nc2c1 | active: 9.28 µM | – |
| CS/C(Nc1cc(Cl)ccc1Cl)=C(/C#N)C(=O)c1ccco1 | active: 3.29 µM | – |
| CCCc1ccc(C(C)NC(=S)NCc2ccc(F)cc2)cc1 (stereo not given) | inconclusive [inhibitor, partial curve, poor fit] | – |
| O=C(NC(=S)Nc1ccc(Cc2ccncc2)cc1)c1ccc(F)cc1 | inconclusive [inhibitor, single point] | – |
| O=C1NCCN(Cc2cccc(Oc3ccccc3)c2)C1CC(=O)N1CCCO1 (stereo not given) | – | inactive: 15.4% |
| O=c1[nH]c(=O)n(Cc2ccccc2)c(O)c1/C=N/NCCO | inconclusive [inhibitor, partial curve, poor fit] | – |
| COc1c(/C=N/NC(=O)[C@H]2C[C@@H]2c2ccccc2)c(CCN(C)C(C)=O)cc2c1OCO2 | inconclusive [inhibitor, partial curve, poor fit] | – |
| COc1ccccc1N(CC(=O)N/N=C(\C)c1ccccc1O)S(=O)(=O)c1ccc(C)cc1 | inconclusive [inhibitor, single point] | – |
| CCCCCOc1ccccc1C(=O)NCCC(=O)O | inconclusive [inhibitor, single point] | – |
| Cc1ccc(/C=N/Nc2ccc(C(=O)O)cc2)s1 | – | inactive: 61.2% |
| COc1ccc(-c2ccc(CCC(=O)O)n2CC(=O)Nc2ccccc2C)cc1 | – | inactive: 14.8% [at 0.00184 µM] |
| CN(C)S(=O)(=O)c1cccc(NC(=O)c2cc(-c3cccs3)nn2-c2ccccc2)c1 | inconclusive [inhibitor, single point] | – |
| COc1ccc(/C=C/C(=O)Nc2ccccc2)cc1S(=O)(=O)N1CCOCC1 | inconclusive [inhibitor, partial curve, poor fit] | – |
| CCCCc1cc(=O)oc2c(C)c(OCC(=O)N3C[C@H]4C[C@@H](C3)c3cccc(=O)n3C4)ccc12 | inconclusive [inhibitor, single point] | – |
| CCOC(=O)Cn1c(-c2cccnc2)nc(-c2ccccc2)c1-c1ccccc1 | active: 4.15 µM | – |
| COCCNC(=O)C(c1cccs1)N(C(=O)Cn1nnc2ccccc21)c1cccc(C(C)=O)c1 (stereo not given) | inconclusive [inhibitor, partial curve, poor fit] | – |
| CCOc1cc(CNCc2cccs2)cc(Br)c1OC | – | inactive: 61.2% |
| O=C(Nc1ccc2oc(-c3ccncc3)nc2c1)c1ccc2c(c1)OCCO2 | inconclusive [inhibitor, single point] | – |
